In data set [1] the test system is cultured bloodstream T. brucei (strain 427). Briefly: microbe, parasite or virus in culture. The conditions noted are these: Trypanosoma brucei; for IC50: read-out: T. brucei ED50, ED50 ± SD (n = 4).
Data set [2] has the same test system. The settings on record: for Selectivity index: T. brucei ED50 versus HeLa ED50.
Setting [3] is: read-out: T. brucei Alamar Blue.
[4] abbreviates: read-out: T. brucei Alamar Blue (% survival).

Values joined by “and” are separate entries in the source; they are usually repeats but may differ in a detail not shown here. Identical values can stand only once. Like-named read-outs stand apart in the source and are kept apart here.

This note sets out measurements from article PMC3199943, “Screening the MayBridge Rule of 3 Fragment Library for Compounds That Interact with the Trypanosoma brucei myo-Inositol-3-Phosphate Synthase and/or Show Trypanocidal Activity” (Molecular Biology International, 2011).

On to `Nc1ccccc1N` [269a, benzene-1,2-diamine], for which the IC50 in data set [1] worked out at 35.2 ± 3 µM. In data set [2], this molecule came in with a Selectivity index of 0.9.
With `Nc1ccc(Cl)c(F)c1` [269b], in data set [1], the IC50 came out at 150 ± 13 µM. Besides, in data set [2], the Selectivity index turned out to be 9.3.
In the same order, the values of `Nc1ccc(Cl)cc1N` [269c] are 21.9 ± 1.2 µM and 10.2.
`Fc1cc2nc[nH]c2cc1Cl` [269d]: the IC50 in data set [1] amounted to 331 ± 24 µM. Moreover, in data set [2], the Selectivity index amounted to 1.6.
`CC(=O)c1cc[nH]c1` [compound 20, 1-(1H-pyrrol-3-yl)ethan-1-one]: the viability at 500 µM in data set [1] (setting [3]) and in data set [1] (setting [4]) was 36.8 ± 9.7% each time.
`Cc1cc(C)n(C)n1` [compound 24, 1,3,5‐trimethyl‐1H‐pyrazole]: in data set [1] (setting [3]), the viability at 500 µM is 114 ± 12.5%.
Take `O=C(O)c1ccoc1` [compound 28, 3-furoic acid]: the viability at 500 µM in data set [1] (setting [3]) and in data set [1] (setting [4]) was 59.7 ± 5.5% in each case.
With `Cc1cc(CN)no1` [compound 33, (5‐methyl‐3‐isoxazolyl)methylamine], the viability at 500 µM in data set [1] (setting [3]) was 75.7 ± 13.5%.
With `Cc1nnc(N)s1` [compound 39, 5‐methyl‐1,3,4‐thiadiazol‐2‐amine], in data set [1] (setting [3]), the viability at 500 µM was 103 ± 12%.
Same read-out and setting: as for `OCC1CCNCC1` [compound 40, 4‐piperidylmethanol], the figure is 72.2 ± 8.1%.
For `OCC1CCOCC1` [compound 43, tetrahydro‐2H‐pyran‐4‐ylmethanol], in data set [1] (setting [3]), the viability at 500 µM turned out to be 113 ± 18.4%.
For the molecule `N#CCCn1cccc1` [compound 50, 3‐(1H‐pyrrol‐1‐yl)propanenitrile], in data set [1] (setting [3]), the viability at 500 µM worked out at 90.7 ± 10.3%.
On to `Cc1noc(C)c1C#N` [compound 53, 3,5‐dimethyl‐4‐isoxazolecarbonitrile], for which the viability at 500 µM in data set [1] (setting [3]) stood at 85 ± 13.8%.
Still for that read-out and setting: as for `O=C(O)c1ccccn1` [compound 58, 2‐pyridinecarboxylic acid], the figure is 63 ± 15.4%; as for `Cc1ccc(O)c(C)n1` [compound 64, 2,6‐dimethylpyridin‐3‐ol], 111 ± 6.3%.
Still for that read-out and setting: as for `COc1ncccc1N` [compound 65, 2‐methoxypyridin‐3‐amine], the figure is 40 ± 11.5%.
On to `Cc1occc1C(=O)O` [compound 75, 2-methyl-3-furoic acid], for which the viability at 500 µM in data set [1] (setting [3]) and in data set [1] (setting [4]) was 62.2 ± 10.6% throughout.
As to `NC(=O)c1cccs1` [compound 80, thiophene‐2‐carboxamide], the viability at 500 µM in data set [1] (setting [3]) came to 99.6 ± 2.4%.
For `ON=C1CCCCCN1` [compound 87, azepan‐2‐one oxime], the viability at 500 µM in data set [1] (setting [3]) turned out to be 56.3 ± 9.9%.
`Cc1cccc2cc[nH]c12` [compound 95, 7‐methyl‐1H‐indole]: in data set [1] (setting [3]), the viability at 500 µM turned out to be 24.1 ± 5.2%.
`c1cnc2c(n1)CCCC2` [compound 111, 5,6,7,8‐tetrahydroquinoxaline]: the viability at 500 µM in data set [1] (setting [3]) was 110 ± 17.6%.
On to `Cc1ccc(CO)cc1C` [compound 119, (3,4‐dimethylphenyl)methanol], for which, in data set [1] (setting [3]), the viability at 500 µM worked out at 103 ± 2.8%.
Same read-out and setting: as for `CC(=O)c1cccc(F)c1` [compound 125, 1‐(3‐fluorophenyl)ethan‐1‐one], the figure is 105 ± 17.2%.
With `Cc1cc(C(N)=S)no1` [compound 140, 5‐methylisoxazole‐3‐carbothioamide], in data set [1] (setting [3]), the viability at 500 µM came to 99.2 ± 19.8%.
The same measure, in the same setting: next, `c1cncc(-n2cccc2)c1` [compound 151, 3‐(1H‐pyrrol‐1‐yl)pyridine]: 56.6 ± 19.2%; `Cn1ccc2cc(N)ccc21` [compound 158, 1‐methyl‐1H‐indol‐5‐amine]: 42.7 ± 9.7%.
`OCc1c[nH]c2ccccc12` [compound 162, 1H-indol-3-ylmethanol]: the viability at 500 µM in data set [1] (setting [3]) and in data set [1] (setting [4]) was 32.5 ± 5.9% each time. The IC50 in data set [1] was 31.3 ± 1.4 µM. This molecule also had a Selectivity index in data set [2] of 3.3.
For the molecule `OCc1cccc2[nH]ccc12` [compound 163, 1H-indol-4-ylmethanol], the viability at 500 µM in data set [1] (setting [3]) and in data set [1] (setting [4]) was 34.8 ± 0.8% in each case.
As to `NCc1ccc2occc2c1` [compound 165, 1‐benzofuran‐5‐ylmethylamine], in data set [1] (setting [3]), the viability at 500 µM is 81.5 ± 6.3%.
As for `OCc1cc2ccccc2o1` [compound 167, 1‐benzofuran‐2‐ylmethanol], in data set [1] (setting [3]), the viability at 500 µM came out at 89.8 ± 4.7%.
Consider `NC1=CC=C2OCOCC2C1` (stereo not shown) [compound 195, 4,5‐dihydro‐1,3‐benzodioxine‐6‐amine], for which the viability at 500 µM in data set [1] (setting [3]) was 41.8 ± 8.8%.
As for `Cc1ccc(C(=O)O)c(N)c1` [compound 196, 2‐amino‐4‐methylbenzoic acid], the viability at 500 µM in data set [1] (setting [3]) came out at 87.4 ± 19.7%.
With `CC(=O)N1CCC(C#N)CC1` [compound 207, 1‐acetylpiperidine‐4‐carbonitrile], the viability at 500 µM in data set [1] (setting [3]) amounted to 96.5 ± 13.9%.
Same read-out and setting: as for `CC(=O)Nc1ccccc1F` [compound 212, N1‐(2‐fluorophenyl)acetamide], the figure is 97.3 ± 9.6%.
In the case of `COc1ccc(N)c(OC)c1` [compound 213, 2,4‐dimethoxyaniline], the viability at 500 µM in data set [1] (setting [3]) is 23.7 ± 5.8%. The IC50 in data set [1] is 55.6 ± 1.3 µM. In data set [2], this molecule had a Selectivity index of 12.8.
Take `O=C(O)Cc1ccc(F)cc1` [compound 219, 2‐(4‐fluorophenyl)acetic acid]: the viability at 500 µM in data set [1] (setting [3]) worked out at 101 ± 18%.
The same measure, in the same setting: next, `Clc1ccc2nonc2c1` [compound 225, 5‐chloro‐2,1,3‐benzoxadiazole]: 95 ± 12.2%.
Regarding `Cc1csc(N)c1C(N)=O` [compound 239, 2-amino-4-methylthiophene-3-carboxamide], the viability at 500 µM in data set [1] (setting [3]) and in data set [1] (setting [4]) was 22.9 ± 7% throughout. Moreover, the IC50 in data set [1] stood at 63 ± 2.5 µM. For the same molecule, the “T. brucei ED50” value in data set [2] (ED50 ± SD (n = 4)) amounted to 63.0 ± 2.5 µM.
For the molecule `Cc1cc(N)c(N)cc1Cl` [compound 240, 4-chloro-5-methylbenzene-1,2-diamine], the viability at 500 µM in data set [1] (setting [3]) stood at 28.9 ± 7.8%. Moreover, the IC50 in data set [1] was 86.6 ± 4.8 µM. The Selectivity index in data set [2] was determined as 5.2.
Turning to `COC(=O)c1ccsc1N` [compound 242, methyl 2‐aminothiophene‐3‐carboxylate], in data set [1] (setting [3]), the viability at 500 µM came out at 74 ± 4.7%.
`OCc1ccc2ccccc2n1` [compound 256, 2-quinolinylmethanol]: the viability at 500 µM in data set [1] (setting [3]) and in data set [1] (setting [4]) was 21.7 ± 6% each time. Further, the IC50 in data set [1] was found to be 40.1 ± 1.2 µM. For the same molecule, the Selectivity index in data set [2] is ~ 21 and 20.8.
As to `Cc1cc2c(N)cccc2nn1` [compound 261, 3-methylcinnolin-5-amine], the viability at 500 µM in data set [1] (setting [3]) and in data set [1] (setting [4]) was 21.7 ± 8.5% in each case. The IC50 in data set [1] is 148 ± 8 µM.
Consider `Nc1ccccc1-n1ccnc1` [compound 262, 2‐(1H‐imidazol‐1‐yl)aniline], for which the viability at 500 µM in data set [1] (setting [3]) was 72.4 ± 20%.
On to `NCc1ccc(F)c(Cl)c1` [compound 264, 3‐chloro‐4‐fluorobenzylamine], for which the viability at 500 µM in data set [1] (setting [3]) was found to be 29 ± 5.5%.
Take `Nc1cc(F)c(Cl)cc1N` [compound 269, 4-chloro-5-fluorobenzene-1,2-diamine]: in data set [1] (setting [3]), the viability at 500 µM stood at 25.1 ± 10.1%. In addition, the IC50 in data set [1] was less than 40 µM. The Selectivity index in data set [2] was ~ 21 and 21.4.
With `COC(=O)c1ccccc1C#N` [compound 274, methyl 2‐cyanobenzoate], in data set [1] (setting [3]), the viability at 500 µM worked out at 91.2 ± 14.9%.
Consider `Cn1ccc2ccc(CO)cc21` [compound 278, (1‐methyl‐1H‐indol‐6‐yl)methanol], for which, in data set [1] (setting [3]), the viability at 500 µM was 28.8 ± 10.8%.
As to `Cn1c(CN)nc2ccccc21` [compound 281, (1‐methyl‐1H‐benzimidazol‐2‐yl)methylamine], in data set [1] (setting [3]), the viability at 500 µM worked out at 27.3 ± 7.7%. Further, the IC50 in data set [1] was found to be 44.7 ± 1.8 µM. Also, the Selectivity index in data set [2] turned out to be 14.7.
On to `Cn1nc(CO)c2ccccc21` [compound 286, (1‐methyl‐1H‐indazol‐3‐yl)methanol], for which the viability at 500 µM in data set [1] (setting [3]) was 65.3 ± 18%.
Still for that read-out and setting: as for `CCCc1ccc(C(C)=O)cc1` [compound 288, 1‐(4‐propylphenyl)ethan‐1‐one], the figure is 33.5 ± 0.5%.
`CN(C(N)=S)c1ccccc1` [compound 325, N‐methyl‐N‐phenylthiourea]: the viability at 500 µM in data set [1] (setting [3]) worked out at 24 ± 5.4%. Further, in data set [1], the IC50 was found to be 82.2 ± 4.6 µM. In addition, the Selectivity index in data set [2] is reported as 5.
For `NCc1cccc(-n2cccc2)c1` [compound 364, 3‐(1H‐pyrrol‐1‐yl)benzylamine] the same measures were 23.2 ± 4.2%, 63.2 ± 1.7 µM and 0.6.
For `NCc1ccc(-n2cccc2)cc1` [compound 365, 4‐(1H‐pyrrol‐1‐yl)benzylamine], the viability at 500 µM in data set [1] (setting [3]) worked out at 22.3 ± 5.1%. The IC50 in data set [1] stood at 49.4 ± 2.1 µM. The molecule further showed a Selectivity index in data set [2] of 1.5.
For the molecule `O=C(O)c1ccccc1-n1cccc1` [compound 513, 2-(1H-pyrrol-1-yl)benzoic acid], the viability at 500 µM in data set [1] (setting [3]) and in data set [1] (setting [4]) was 104 ± 9.6% in each case. Moreover, in data set [2] (at 0.5 mM), the “trypanocidal or general cytotoxicity activity” value is on record as “no trypanocidal or general cytotoxicity activity”.
Turning to `O=C(O)c1sccc1-n1cccc1` [compound 577, 3-(1H-pyrrol-1-yl)thiophene-2-carboxylic acid], the viability at 500 µM in data set [1] (setting [3]) and in data set [1] (setting [4]) was 32.2 ± 4.1% in each case.
